# Assay results published in the supplement of paper PMC11417369.
# The other results are listed elsewhere or left out.
# System: PF3D7_0420300 AP2 domain 1 (GST-tagged)
# Test: gcPBM binding intensity (ln(normalized median fluorescence intensity)); higher = stronger DNA binding
# Outline: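 Alexa488 anti-GST antibody, scanned at 488 nm, detected GST-tagged P. falciparum DNA-binding domains that had been expressed in E. coli and incubated for 1 h on an Agilent 4 × 180k array. The array carried primer-extended double-stranded 36-bp intergenic genomic probes and negative controls. Binding intensity is the highest Masliner-normalised natural-log median intensity across replicate spots of either orientation of each probe.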
row,Sequence,gcPBM binding intensity (ln)
1,ATTATTAACATATATATACACACGAAAAAATTATAT [CACACA_site625],9.73
2,TAATGAAATATTATGTGTACTTAAAAATTATTAAAT [XGTACX_site5261],9.02
3,ATTTTAGGAAAAAAAAGTACATATAATTTTTTATAT [XGTACX_site6954],8.88
4,TGTTTGCTTATGTGTTAAATATATATATATATATAT [TGCATGCA_negctrl_site218],9.42
5,CGAACACAAACACAAACACACATCAGATATAAATAT [CACACA_site6736],9.66
6,TTTTTTTTGATATATACACACAATAAATAAATATAA [CACACA_site7400],9.31
7,ATTTATTATTATATCACACATAATATATTAAATGAT [CACACA_site5821],9.09
8,TATGGAGAAATAAATAGTACGTATTTTATTTAAAAA [XGTACX_site3129],9.12
9,AAAAATATAAAAATAGCACACATATATACATATATA [CACACA_site7901],9.48
10,TTTCCTAGCACATGCACACAAAAAAAAAAAAAAAAA [CACACA_site1404],8.89
11,ATGTTCGATGATAAATGTACAAAAATAATGGAAGTA [XGTACX_site1916],9.43
12,TATAAAAATATTGAAAGTACTTATTAAAATATTATT [XGTACX_site3701],9.1
13,CTTGCAAAAAGTATATGTACATATATATATATATAT [XGTACX_site5792],9.19
14,ATTGATACATCCAATACACACTACATATAATGATGT [CACACA_site8561],9.42
15,ATATTAATAATATATGCATGCATTAACATATTGAAA [TGCATGCA_site951],9.1
16,GTATGTATGTATATATGTACACATTATTATTTAATG [XGTACX_site5802],9.3
17,TTTTTTATATATACATATATATAAATATATATAACT [GTGCAC_negctrl_site385],8.99
18,GAGAAAAGGAAATTCACACATATAAAGAAAGATCTA [CACACA_site5420],9.19
19,TTTTTGTTCTATATGGTGCATGTTTATATTCGTATT,9.75

row,Sequence,gcPBM binding intensity (ln)
1,ATTAGCAACATTGATAAATATAAACACACGAAAACA [TGCATGCA_negctrl_site97],9.71
2,TTTTAGAAATTTACTAAACTTTATATAACTATTGAA [TGCATGCA_negctrl_site280],8.78
3,ATACCATAAATATTGTGTACATAAATATGTTAGTAA [XGTACX_site6077],9.28
4,CACGTATATATATATACACACACATATATATATGTA [CACACA_site7948],9.69
5,CATGTTTATGCCGTTTGTACATATATATCTAAAAAA [XGTACX_site4336],9.18
6,ATGATTATAATTTAAAATATTTTACATAACCATTTC [GTGCAC_negctrl_site297],9.14
7,TTTAGCTATTATAGCTGTACAATGATAAAATAAATT [XGTACX_site6318],8.93
8,ATAAGTAAAAATAAAAAAAAAATATATATATATATA [CACACA_negctrl_site1816],9.05
9,GTTCATATCTTTTGAGCACACATATATATATATAAA [CACACA_site9099],9.36
10,AATGAATCCTTATATACACACATTATTATATTATAT [CACACA_site3108],9.62
11,TATATTATATATATGTGTACATATAAATGTAACAAA [XGTACX_site5025],9.08
12,ATAGAATACATATATGAACACACAGAGTTTTAAAAA [CACACA_site8879],9.55
13,AATACATATAAAAGTACACACACACCCATATATATA [CACACA_site8220],10.2
14,TTTTTTTTTTGATGTTGTACATATATACTATATAAT [XGTACX_site1332],9.31
15,GAAAATAAAAAAAATAAAAAAAATAAAAAAAATTAT [XGTACX_negctrl_site443],9.23
16,TAAATATCTAAAGACTGTACAATTAAATATAAACAT [XGTACX_site1450],9.21
17,TTTTGTAACCTATGCACGCACACAAGAAAAAAACAA [CACACA_site3776],9.24
18,AGTTTATTTGTAAAAAGTACATATTTAAGAAAACTT [XGTACX_site2318],9.1
19,TTCTAACTCTAACAAGTGCAATATATATACATAATA,9.07

row,Sequence,gcPBM binding intensity (ln)
1,AAATTTGGCAAACACACACACACACCCACACCCACA [CACACA_site8095],10.2
2,AATATATATCATCACACACACATACATAAATATATA [CACACA_site184],10
3,AATATATTCCACATGTGTACATATATATATATATAT [XGTACX_site8006],9.41
4,AAAAATAAAGAAACAGGTACGCATATATTAAGATAT [XGTACX_site8097],9.79
5,TTTCCTTCTACAAAAAATTTTATCAAGAGGAAGTAC [CACACA_negctrl_site926],8.83
6,TGTCACTACAAATGAGTGCATTAAATAATTTGGAAA,9.01
7,AATATTATTTATATTTGTACACAGTAATATAAAATA [XGTACX_site4884],9.06
8,ATATGCAAAGAGTATAATCAAAATGTAAATAAATAA [GTGCAC_negctrl_site141],9.26
9,CCATAGATATTTTATACACACATATAATATATTAAG [CACACA_site4363],9.44
10,TTATAAAGAACACAGACACACAAAGAAAGAACCAAT [CACACA_site4175],10.1
11,CACAAATAAATACATACACACATATATACTCATATA [CACACA_site4379],9.71
12,TTACACAAATAGCTGCATTTATAAAATACAATTAAA [CACACA_negctrl_site241],9.03
13,TGGGCGTCATAATGAACACACAATTATATTATGACT [CACACA_site3910],9.25
14,ATATATATAATAATATGTACGGAAAAAGCTTAAGCT [XGTACX_site5661],9.3
15,TTTTGTCAATTTTAGATTTTTCAATACATGGATATT [CACACA_negctrl_site319],9.04
16,ATATATATATATTTATGTACGAATATGTTTAATTTA [XGTACX_site3986],9.18
17,AAATATATATATTTACGTACATATATACAAATAGAG [XGTACX_site6067],9.35
18,AAATGGTAAGAAAATAAATAAAGTTCTACCACATAA [CACACA_negctrl_site1542],9.33
